Reference: publication PMC4924737
Results are given in words; binding and its absence hold for the method and conditions named. In cells and extracts the contact can be indirect. Some entries that bind do so weakly or less than the wild type. Sequences can lack the tags named with a protein.

Chains of the proteins cited; added tags and fusions are not shown. Lines headed by an entry give the natural chain unless they say otherwise; changes in a name come on top. A line that says so, or that is headed by a name, gives the form on record, which may keep a tag or linker.
mutant Pro-MST3-HA (MST3 with mutations of the two prolines of the proline-rich domain) (Q9Y6E0, form named): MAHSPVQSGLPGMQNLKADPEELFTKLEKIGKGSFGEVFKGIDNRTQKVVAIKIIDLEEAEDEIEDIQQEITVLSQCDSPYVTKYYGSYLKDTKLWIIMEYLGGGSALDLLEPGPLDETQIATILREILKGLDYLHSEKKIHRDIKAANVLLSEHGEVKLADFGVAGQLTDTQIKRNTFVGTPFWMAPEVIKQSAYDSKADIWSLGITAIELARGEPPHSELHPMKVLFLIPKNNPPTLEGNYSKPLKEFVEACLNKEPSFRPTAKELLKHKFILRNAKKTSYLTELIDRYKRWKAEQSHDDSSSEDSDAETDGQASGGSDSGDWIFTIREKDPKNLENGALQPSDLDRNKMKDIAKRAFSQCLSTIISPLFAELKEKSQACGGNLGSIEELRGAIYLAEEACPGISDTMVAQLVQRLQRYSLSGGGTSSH
Wild-type MST3-HA (Q9Y6E0, form named): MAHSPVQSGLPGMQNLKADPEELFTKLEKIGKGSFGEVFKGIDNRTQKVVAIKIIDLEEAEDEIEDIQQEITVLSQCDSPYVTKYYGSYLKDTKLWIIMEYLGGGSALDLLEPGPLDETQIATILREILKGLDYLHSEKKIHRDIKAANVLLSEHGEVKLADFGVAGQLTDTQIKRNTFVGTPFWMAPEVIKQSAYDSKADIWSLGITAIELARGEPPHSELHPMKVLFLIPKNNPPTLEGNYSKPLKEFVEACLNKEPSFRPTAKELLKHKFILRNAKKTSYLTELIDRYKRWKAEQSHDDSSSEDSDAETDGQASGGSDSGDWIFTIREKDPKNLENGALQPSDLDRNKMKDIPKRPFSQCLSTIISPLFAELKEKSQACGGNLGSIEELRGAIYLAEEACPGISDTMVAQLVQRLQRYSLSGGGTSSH

Experiments:
[1] = target: mutant Pro-MST3-HA (MST3 with mutations of the two prolines of the proline-rich domain) (UniProt Q9Y6E0); assay: co-IP; HEK293 cells co-transfected with the two tagged proteins; Triton X-100 lysis buffer (50 mM Tris-HCl pH 7.8, 150 mM NaCl, 1% Triton X-100); 0.5 mg total protein, 1 ug anti-myc or anti-HA antibody overnight at 4°C, protein G-Sepharose; immunoblot with anti-myc and anti-HA
[2] = target: Wild-type MST3-HA (UniProt Q9Y6E0); assay: as above

B1: Wild-type VAV2-myc (protein, UniProt P52735 1-878)
chain: MEQWRQCGRWLIDCKVLPPNHRVVWPSAVVFDLAQALRDGVLLCQLLHNLSPGSIDLKDINFRPQMSQFLCLKNIRTFLKVCHDKFGLRNSELFDPFDLFDVRDFGKVISAVSRLSLHSIAQNKGIRPFPSEETTENDDDVYRSLEELADEHDLGEDIYDCVPCEDGGDDIYEDIIKVEVQQPMIRYMQKMGMTEDDKRNCCLLEIQETEAKYYRTLEDIEKNYMSPLRLVLSPADMAAVFINLEDLIKVHHSFLRAIDVSVMVGGSTLAKVFLDFKERLLIYGEYCSHMEHAQNTLNQLLASREDFRQKVEECTLKVQDGKFKLQDLLVVPMQRVLKYHLLLKELLSHSAERPERQQLKEALEAMQDLAMYINEVKRDKETLRKISEFQSSIENLQVKLEEFGRPKIDGELKVRSIVNHTKQDRYLFLFDKVVIVCKRKGYSYELKEIIELLFHKMTDDPMNNKDVKKSHGKMWSYGFYLIHLQGKQGFQFFCKTEDMKRKWMEQFEMAMSNIKPDKANANHHSFQMYTFDKTTNCKACKMFLRGTFYQGYMCTKCGVGAHKECLEVIPPCKFTSPADLDASGAGPGPKMVAMQNYHGNPAPPGKPVLTFQTGDVLELLRGDPESPWWEGRLVQTRKSGYFPSSSVKPCPVDGRPPISRPPSREIDYTAYPWFAGNMERQQTDNLLKSHASGTYLIRERPAEAERFAISIKFNDEVKHIKVVEKDNWIHITEAKKFDSLLELVEYYQCHSLKESFKQLDTTLKYPYKSRERSASRASSRSPASCASYNFSFLSPQGLSFASQGPSAPFWSVFTPRVIGTAVARYNFAARDMRELSLREGDVVRIYSRIGGDQGWWKGETNGRIGWFPSTYVEEEGIQ
binding [1]: binds weakly
binding [2]: binds
